Assay results published in paper PMC4336329 (PLoS ONE, 2015).
Screen size: about 310,000 compounds; about 14,000 (4.5%) showed an effect of 50% or more. Effects have a minus sign here. The list shows a part of the results.

Each compound was assayed against human ether-à-go-go-related gene (hERG) potassium channel (human, UniProt Q12809) (assay: primary screen, population patch clamp on CHO cells stably expressing hERG).
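Also: peak tail current of the secondary pulse compared with the same well before compound.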

human ether-à-go-go-related gene (hERG) potassium channel, sequence (Q12809 whole entry, looked up): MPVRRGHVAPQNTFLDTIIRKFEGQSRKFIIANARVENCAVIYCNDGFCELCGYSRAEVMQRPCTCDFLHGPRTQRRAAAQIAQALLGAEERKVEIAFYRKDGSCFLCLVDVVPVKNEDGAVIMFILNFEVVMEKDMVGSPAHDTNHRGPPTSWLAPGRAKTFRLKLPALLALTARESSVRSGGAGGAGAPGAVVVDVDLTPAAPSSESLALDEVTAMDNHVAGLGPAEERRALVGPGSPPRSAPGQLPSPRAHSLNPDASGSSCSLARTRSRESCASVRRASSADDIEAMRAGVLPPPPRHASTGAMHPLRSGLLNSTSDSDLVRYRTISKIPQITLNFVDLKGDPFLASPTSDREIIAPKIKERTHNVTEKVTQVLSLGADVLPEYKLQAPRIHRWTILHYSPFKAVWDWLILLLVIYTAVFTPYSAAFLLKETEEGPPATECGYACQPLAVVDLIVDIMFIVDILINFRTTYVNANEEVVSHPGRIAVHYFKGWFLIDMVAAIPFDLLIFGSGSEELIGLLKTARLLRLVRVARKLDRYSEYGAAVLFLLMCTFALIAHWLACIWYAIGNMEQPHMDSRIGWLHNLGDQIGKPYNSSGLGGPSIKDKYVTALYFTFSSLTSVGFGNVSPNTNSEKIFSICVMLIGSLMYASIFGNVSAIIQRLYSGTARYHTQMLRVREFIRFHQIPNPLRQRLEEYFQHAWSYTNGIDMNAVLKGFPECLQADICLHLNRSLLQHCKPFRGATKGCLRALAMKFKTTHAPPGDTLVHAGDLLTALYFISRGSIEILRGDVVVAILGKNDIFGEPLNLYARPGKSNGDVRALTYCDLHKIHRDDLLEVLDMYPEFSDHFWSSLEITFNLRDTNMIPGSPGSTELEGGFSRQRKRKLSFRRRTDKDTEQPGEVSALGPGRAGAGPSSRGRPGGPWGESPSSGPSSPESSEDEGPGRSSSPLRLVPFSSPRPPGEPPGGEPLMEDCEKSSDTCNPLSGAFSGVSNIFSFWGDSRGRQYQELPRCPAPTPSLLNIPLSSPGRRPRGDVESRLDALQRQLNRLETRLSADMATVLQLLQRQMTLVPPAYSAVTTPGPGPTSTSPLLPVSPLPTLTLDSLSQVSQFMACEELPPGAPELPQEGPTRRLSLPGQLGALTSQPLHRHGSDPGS

In order of falling “hERG current change (%, negative = inhibition) at 10uM” value:
1. Cc1cc(C)nc(SCC(CSc2nc(C)cc(C)n2)C(=O)O)n1  18.9%
2. COc1ccc(C(=O)ON=C2c3ccccc3-c3ccccc32)cc1OC  18.2%
3. CC(=O)Nc1ccccc1NS(=O)(=O)c1cccc([N+](=O)[O-])c1  17.6%
4. COc1cc(=O)n(C)c2c(OCC(O)C(C)(C)O)cccc12 (centres unmarked)  16.6%
5. CCOC(=O)CN1C(=O)N[C@@H](CCc2ccccc2)[C@@H](C(=O)OC)[C@H]1C  14.5%
6. CCOC(CNC(=O)CCc1c(C)nc2ncnn2c1C)OCC  14%
7. CN(CCO)S(=O)(=O)c1ccc2c(c1)C(=NN)c1cc(S(=O)(=O)N(C)CCO)ccc1-2  9.76%
8. O=C(O)c1ccc[n+](Cc2ccc([N+](=O)[O-])cc2)c1.[Br-]  8.97%
9. O=C(/C=C/c1ccc([N+](=O)[O-])cc1)NCCN1C(=O)S/C(=C\c2ccc(F)cc2)C1=O  8.85%
10. COC(=O)C1=C(c2ccc(F)cc2OCc2ccccc2)C[C@@H]2CC[C@H]1N2C(=O)NCCN1CCOCC1  7.9%
11. COc1cc(NC(=O)CSc2ccc(-c3cccnc3)nn2)cc(OC)c1  7.83%
12. O=C(NC1CCCCC1)C(c1ccc(F)cc1)N(Cc1ccco1)C(=O)c1csnn1 (centres unmarked)  7.65%
13. COc1ccc(CCNC(=O)COC(=O)COc2ccc(C#N)cc2)cc1  6.71%
14. Cc1noc(C)c1COc1ccc(C(=O)Nc2nnc(CC(C)C)s2)cc1  6.16%
15. CCCc1cc(=O)oc2cc(OCC(=O)Nc3ccc4c(c3)OCCO4)ccc12  6.15%
16. Cc1ccc(-n2ncc(C(=O)NC3CC3)c2C2CCN(C(=O)OC(C)(C)C)CC2)cc1  4.64%
17. CCn1c(SCC(=O)c2ccccc2)nc2ccccc2c1=O  4.47%
18. Cc1c(NC(=O)CSc2n[nH]c(-c3ccccc3)n2)c(=O)n(-c2ccccc2)n1C  3.93%
19. CCc1ccc(NC(=O)C2CC=CCC2C(=O)O)cc1 (centres unmarked)  3.28%
20. COc1ccc(/C=C/C(=O)Nc2nc(C)c(C(=O)N(C)C)s2)cc1  3.15%
21. N#C/C(=C\c1cccnc1)C(=O)Nc1ccc(O)cc1F  1.67%
22. CCCCOc1ccc(S(=O)(=O)n2c(C)nc3ccccc32)cc1  0.0246%
23. O=C(Nc1ccc(F)cc1F)NC1CCN(Cc2c(F)cccc2Cl)CC1  -0.0524%
24. c1ccc(-n2nnnc2SCc2cccc(CSc3nnnn3-c3ccccc3)n2)cc1  -1.88%
25. CCc1nccn1S(=O)(=O)c1cc(C)c(OC)cc1C  -2.37%
26. COc1cc(C(=O)OCCn2c(=O)c3c(ncn3CCN(C)C)n(C)c2=O)cc(OC)c1OC.Cl  -2.6%
27. O=c1[nH]c(=O)n(CCc2ccc(F)cc2)c(O)c1C=NCCCn1ccnc1  -3.22%
28. CC1CCCN(Cc2c(O)ccc3c2O/C(=C\c2ccco2)C3=O)C1 (centres unmarked)  -4.24%
29. O=c1c(N2CCOCC2)nsn1Cc1ccccc1  -4.28%
30. CCOC(=O)NC(=O)CN1C(=O)NC(C)(c2ccccc2)C1=O (centres unmarked)  -4.44%
31. COc1ccc2cc3cc(C(=O)N4CCN(Cc5ccc6c(c5)OCO6)CC4)oc3nc2c1  -4.89%
32. CCn1c(Cn2nnc(-c3ccccc3)n2)nnc1SCC(=O)Nc1ccccc1  -7.39%
33. Cc1cc(C)c(S(=O)(=O)N2CCCOC2CNC(=O)C(=O)NCCCn2ccnc2)c(C)c1 (centres unmarked)  -9.48%
34. CCOC(=O)C1=C(C)N(C)C(=S)NC1c1ccccc1 (centres unmarked)  -10%
35. CCOc1ccccc1N(CC(=O)NC(C)(C)C)C(=O)Cn1nnc(-c2ccc(C)o2)n1  -16%
36. CCN(CC(=O)NCc1ccc(Cl)cc1)C(=O)C1CCN(S(=O)(=O)c2ccc(OC)c(OC)c2)CC1  -17%
37. c1ccc2c(c1)CCN(c1ncnc3c1[nH]c1ccccc13)C2  -18.1%
38. O=C(CSc1nc2ccccc2nc1N1CCCC1)Nc1ccc(Cl)cc1  -19.8%
39. COC(=O)C1=C(C)N(CCCC(=O)O)C(=O)NC1c1ccc(C#N)cc1 (centres unmarked)  -23.6%
40. O=C(Nc1ccc(Cl)cc1)OCCn1nnnc1C(c1ccccc1Cl)N1CCOCC1 (centres unmarked)  -24.9%
41. CC1CCC(N2CCN(C(=O)COc3ccccc3)CC2)CC1.O=C(O)C(=O)O (centres unmarked)  -31.4%
42. Cc1cccc(Cn2c(=O)c3c(nc4n3CCCN4Cc3ccccc3)n(C)c2=O)c1  -38.8%
43. CCCCC[n+]1ccn(C2=C([O-])c3ccccc3C(=O)/C2=N\S(=O)(=O)c2ccc(Br)cc2)c1  -39.1%
44. CCCc1cc(=O)n2[nH]c(C)c(-c3ccc(Cl)cc3)c2n1  -46.9%
45. Cc1c(OCC(=O)NCCCn2ccnc2)ccc2c3c(c(=O)oc12)CCCC3  -48.2%
46. CCN(Cc1ccc(OC)c(F)c1)C(=O)c1oc2ccccc2c1COC  -54.6%
47. CCN(CC(=O)NCc1ccc(F)cc1)C(=O)CN1CCN(c2ccccc2OC)CC1  -61.4%
